Source: PubChem BioAssay (NCATS)
Where “and” joins values, the source holds several entries; their conditions need not be identical. Equal values may be shown once. Inconclusive results, whose numbers are uncertain, are shown with a selection of clear calls. Where the call is inconclusive, the potency comes from a doubtful curve fit. Calls of active or inactive are those of the source. Unless noted, calls come from the whole dose curve; as a rule, active = well fitted curve in the direction sought with a large enough effect; inconclusive = small, poorly fitted or top-dose-only effect, or another doubt; inactive = no such curve, though single readings can be large; an effect the other way counts as inactive or inconclusive.

Experiments:
[1] = Primary qHTS for inhibitors of nuclear receptor binding SET domain protein 2 (NSD2) in an isogenic RCH-ACV NSD2 p.E1099K mutant (9B) (AID 1645876); note: nearly all actives have a fitted effect of over 70% in size
[2] = Primary fluorescence-based thiol-reactive (MSTI) qHTS assay for identification of artifact compounds. (AID 1845221);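 note: thiol-reactive compounds lower the probe fluorescence signal; nearly all actives have a fitted effect of over 65% in size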
Method in brief: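 Compounds were incubated 1 h at room temperature in the dark with the MSTI probe (4 uM) in PBS pH 7.4, 2% DMSO. Signals were normalized between Acetyl-MSTI and MSTI.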

KB-3-1 = experiment: Cytotoxic Profiling of Annotated Libraries Using Quantitative High-Throughput Screening (AID 1296008); conditions: Five cell lines viability, CellTiter-Glo ATP luminescence, 48-72 h; max response: hits give low values; note: nearly all actives have a fitted effect of over 60% in size; for max response: % is set by controls: 0 for no effect and ±100 for the full control effect
Method in brief: (§1)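 Cytotoxicity was measured as CellTiter-Glo ATP luminescence, read after 10 min at room temperature. Compound treatment of the cells lasted 48 or 72 hr at 37 degrees Celsius in a qHTS format.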

NIH3T3 = experiment: as above; conditions: Five cell lines viability, CellTiter-Glo ATP luminescence, 48-72 h; max response: hits give low values
Method in brief: as §1

CASKI = experiment: Primary qHTS to identify gynecologic anti-cancer compounds using libraries of approved drugs and bioactive compounds (AID 1345084); conditions: Gynecologic cancer cell panel viability, ATPlite luminescence, 48 h; series mostly up to 57.5 µM; note: nearly all actives have a fitted effect of over 55% in size; for activity change, negative = cytotoxicity: % is set by controls: 0 for no effect and ±100 for the full control effect
Method in brief: (§2)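 Luminescence from the ATPlite ATP-monitoring reagent indicates viable cell number; lower signal means cytotoxicity. Cells received compound 16 h after seeding and were exposed for 48 h across five concentrations.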

Hek293T = experiment: as above; conditions: Gynecologic cancer cell panel viability, ATPlite luminescence, 48 h, control line for the selectivity index; activity change, negative = cytotoxicity: at 57.5 µM (top of the series) unless noted
Method in brief: as §2

Tov-21-G = experiment: as above; conditions: Gynecologic cancer cell panel viability, ATPlite luminescence, 48 h; activity change, negative = cytotoxicity: at 57.5 µM (top of the series) unless noted
Method in brief: as §2

[3] = Primary qHTS for inhibitors of nuclear receptor binding SET domain protein 2 (NSD2) in an RCH-ACV wild type WT cells (2C) (AID 1645877); conditions: activity change, negative = cell killing: at 44.9 µM (top of the series) unless noted; note: nearly all actives have a fitted effect of over 70% in size
C33A = experiment: Primary qHTS to identify gynecologic anti-cancer compounds using libraries of approved drugs and bioactive compounds (AID 1345084); conditions: Gynecologic cancer cell panel viability, ATPlite luminescence, 48 h; series mostly up to 57.5 µM; note: nearly all actives have a fitted effect of over 55% in size; for activity change, negative = cytotoxicity: % is set by controls: 0 for no effect and ±100 for the full control effect
Method in brief: as §2

CAOV3 = experiment: as above; conditions: Gynecologic cancer cell panel viability, ATPlite luminescence, 48 h; activity change, negative = cytotoxicity: at 57.5 µM (top of the series)
Method in brief: as §2

OV90 = experiment: as above; conditions: Gynecologic cancer cell panel viability, ATPlite luminescence, 48 h; series mostly up to 57.5 µM
Method in brief: as §2

PA-1 = experiment: as above; conditions: Gynecologic cancer cell panel viability, ATPlite luminescence, 48 h; series mostly up to 57.5 µM
Method in brief: as §2

SKOV3 = experiment: as above; conditions: Gynecologic cancer cell panel viability, ATPlite luminescence, 48 h; series mostly up to 57.5 µM
Method in brief: as §2

[4] = P-glycoprotein substrates identified in KB-8-5-11 adenocarcinoma cell line, qHTS therapeutic library screen (AID 1346987); note: nearly all actives have a fitted effect of over 65% in size
Method in brief: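 KB-8-5-11: colchicine-selected sub-line of KB-3-1 over-expressing P-gp; assay medium lacked colchicine. 72 h drug exposure at 37 degree C, CellTiter-Glo.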

[5] = molecular target: Cytochrome P450 2D6 (Homo sapiens) (UniProt P10635); experiment: Cytochrome P450 family 2 subfamily D member 6 (CYP2D6) small molecule antagonists: luciferase biochemical (cell-free) qHTS assay (AID 1645840; active = well fitted curve in the direction sought with a large enough effect in the repeat runs; inconclusive = weak or mixed curves; inactive = no such curve, though single readings can be large; an effect the other way counts as inactive or inconclusive; note: nearly all actives have a fitted effect of over 55% in size)
UniProt P10635, sequence (P10635 whole entry, looked up): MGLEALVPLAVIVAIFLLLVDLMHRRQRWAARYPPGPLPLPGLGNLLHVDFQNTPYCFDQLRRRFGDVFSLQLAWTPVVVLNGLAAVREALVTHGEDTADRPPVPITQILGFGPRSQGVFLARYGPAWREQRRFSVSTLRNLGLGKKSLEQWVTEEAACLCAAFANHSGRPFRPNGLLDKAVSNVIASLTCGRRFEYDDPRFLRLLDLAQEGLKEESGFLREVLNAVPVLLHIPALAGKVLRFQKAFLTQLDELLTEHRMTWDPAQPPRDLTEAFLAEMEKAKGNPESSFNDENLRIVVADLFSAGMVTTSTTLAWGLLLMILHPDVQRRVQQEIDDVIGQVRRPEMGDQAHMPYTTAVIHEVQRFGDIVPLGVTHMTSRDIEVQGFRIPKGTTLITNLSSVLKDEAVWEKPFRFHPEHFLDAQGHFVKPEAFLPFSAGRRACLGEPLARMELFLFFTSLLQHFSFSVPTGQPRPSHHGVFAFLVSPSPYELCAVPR
Method in brief: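 P450-Glo luminescent screen: recombinant CYP2D6 enzyme–proluciferin substrate mix preincubated with compound 10 min at room temperature, then NADPH regeneration added for 1 h at room temperature. Detection reagent added for 20 min; luciferin light read as relative luminescence units.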

Es-2 = experiment: Primary qHTS to identify gynecologic anti-cancer compounds using libraries of approved drugs and bioactive compounds (AID 1345084); conditions: Gynecologic cancer cell panel viability, ATPlite luminescence, 48 h; series mostly up to 57.5 µM; note: nearly all actives have a fitted effect of over 55% in size; for activity change, negative = cytotoxicity: % is set by controls: 0 for no effect and ±100 for the full control effect
Method in brief: as §2

Tov112D = experiment: as above; conditions: Gynecologic cancer cell panel viability, ATPlite luminescence, 48 h; series mostly up to 57.5 µM
Method in brief: as §2

HeLa = experiment: as above; conditions: Gynecologic cancer cell panel viability, ATPlite luminescence, 48 h; activity change, negative = cytotoxicity: at 57.5 µM (top of the series)
Method in brief: as §2
Potency is the fitted concentration of half-maximal effect; tags give direction and shape of the fitted curve.

Cc1c(NC(=O)N2CCOCC2)ccc2c1c1ccccc1n2C(C)C
inactive: Potency [1] | max response (KB-3-1) 3.33% | max response (NIH3T3) -1.53% | Potency (CASKI) | Potency (Hek293T) | Potency (Tov-21-G)
inconclusive: Potency [2] 1.19 µM [inhibitor, full curve]

COc1cc2ncnc(Nc3cccc(O)c3)c2cc1OC
active: Potency [3] 3.25 µM
inconclusive: Potency (NIH3T3) 29.1 µM [inhibitor, single point] | Potency (C33A) 10 µM [cytotoxic, partial curve] | Potency (CAOV3) 3.55 µM [cytotoxic, full curve] | Potency (CASKI) 28.2 µM [cytotoxic, partial curve] | Potency (OV90) 25.1 µM [cytotoxic, single point] | Potency (PA-1) 35.5 µM [cytotoxic, single point] | Potency (SKOV3) 20 µM [cytotoxic, partial curve, poor fit]
inactive: outcome (KB-3-1)

CNc1ccc([N+](=O)[O-])c(Nc2ccc3[nH]ncc3c2)n1
inconclusive: Potency [4] 20.6 µM [inhibitor, single point] | Potency [5] 4.77 µM [inhibitor, single point] | Potency (KB-3-1) 29.1 µM [inhibitor, single point] | Potency (NIH3T3) 20.6 µM [inhibitor, single point] | Potency (C33A) 7.08 µM [cytotoxic, partial curve] | Potency (Es-2) 35.5 µM [cytotoxic, single point] | Potency (Hek293T) 10 µM [cytotoxic, partial curve] | Potency (PA-1) 39.8 µM [cytotoxic, single point] | Potency (Tov-21-G) 31.6 µM [cytotoxic, single point] | Potency (Tov112D) 25.1 µM [cytotoxic, single point]
active: Potency [2] 4.74 µM

Cc1cc(OCc2nnc(SC3CCCC3)n2-c2cccnc2)ccc1-c1ccc(S(C)(=O)=O)cc1
inconclusive: Potency (C33A) 20 µM [cytotoxic, partial curve, poor fit] | Potency (CASKI) 22.4 µM [cytotoxic, partial curve, poor fit] | Potency (Es-2) 35.5 µM [cytotoxic, partial curve, poor fit] | Potency (Hek293T) 5.01 µM [cytotoxic, partial curve, poor fit]
inactive: Potency [5]
active: Potency [4] 2.91 µM | Potency (KB-3-1) 1.46 µM | Potency (NIH3T3) 10.3 µM | Potency (CAOV3) 31.6 µM | Potency (HeLa) 31.6 µM | Potency (OV90) 1.78 µM | Potency (PA-1) 12.6 µM | Potency (SKOV3) 0.794 µM | Potency (Tov-21-G) 28.2 µM | Potency (Tov112D) 31.6 µM

C(#Cc1nc2ncccc2nc1OCCN1CCCC1)c1ccccc1
active: Potency [4] 6.51 µM | Potency (KB-3-1) 8.2 µM | Potency (NIH3T3) 5.17 µM | Potency (C33A) 7.08 µM | Potency (CAOV3) 7.08 µM | Potency (CASKI) 17.8 µM | Potency (Es-2) 3.55 µM | Potency (Hek293T) 10 µM | Potency (PA-1) 6.31 µM | Potency (SKOV3) 14.1 µM | Potency (Tov-21-G) 14.1 µM
inconclusive: Potency (HeLa) 39.8 µM [cytotoxic, single point] | Potency (OV90) 31.6 µM [cytotoxic, single point]

Cc1cccc(-c2[nH]c(Cc3cccc(C(N)=O)c3)nc2-c2ccc3nccnc3c2)n1
inconclusive: Potency [1] 12.9 µM [inhibitor, partial curve] | Potency [3] 20.5 µM [inhibitor, partial curve] | Potency (NIH3T3) 29.1 µM [inhibitor, single point] | Potency (CAOV3) 7.08 µM [rising, single point]
inactive: max response (KB-3-1) -5.51%

CC(C)(C)c1ccc(-c2nc3c(N4CCN(Cc5ccc6nccnc6c5)CC4)cccc3[nH]2)cc1
inconclusive: Potency (KB-3-1) 29.1 µM [inhibitor, single point] | Potency (NIH3T3) 18.4 µM [inhibitor, single point] | Potency (C33A) 31.6 µM [cytotoxic, single point] | Potency (CAOV3) 11.2 µM [cytotoxic, partial curve] | Potency (CASKI) 12.6 µM [cytotoxic, partial curve, poor fit] | Potency (Es-2) 39.8 µM [cytotoxic, single point] | Potency (HeLa) 39.8 µM [cytotoxic, single point] | Potency (Hek293T) 28.2 µM [cytotoxic, single point] | Potency (OV90) 31.6 µM [cytotoxic, single point] | Potency (PA-1) 39.8 µM [cytotoxic, single point] | Potency (SKOV3) 22.4 µM [cytotoxic, partial curve, poor fit] | Potency (Tov-21-G) 31.6 µM [cytotoxic, single point] | Potency (Tov112D) 31.6 µM [cytotoxic, single point]

C=CC(=O)Nc1cccc(Nc2nc(Nc3ccc(OCCOC)cc3)ncc2F)c1
inconclusive: Potency [5] 10.7 µM [inhibitor, partial curve] | Potency (KB-3-1) 18.4 µM [inhibitor, single point] | Potency (C33A) 3.98 µM [cytotoxic, partial curve, poor fit] | Potency (CAOV3) 1.78 µM [cytotoxic, full curve, poor fit] | Potency (CASKI) 28.2 µM [cytotoxic, partial curve, poor fit] | Potency (Es-2) 39.8 µM [cytotoxic, single point] | Potency (Hek293T) 25.1 µM [cytotoxic, single point] | Potency (OV90) 35.5 µM [cytotoxic, single point] | Potency (Tov-21-G) 11.2 µM [cytotoxic, partial curve, poor fit]
active: Potency [2] 4.74 µM | Potency (NIH3T3) 5.8 µM | Potency (HeLa) 11.2 µM | Potency (PA-1) 10 µM | Potency (SKOV3) 2.82 µM

COc1ccc(-c2cc3onc(-c4ccncc4)c3c(=O)n2C)cc1
inconclusive: Potency [4] 3.66 µM [inhibitor, partial curve] | Potency [1] 1.15 µM [inhibitor, full curve] | Potency [3] 0.817 µM [inhibitor, full curve] | Potency (KB-3-1) 5.17 µM [inhibitor, full curve] | Potency (NIH3T3) 0.326 µM [inhibitor, full curve, poor fit] | Potency (C33A) 2.82 µM [cytotoxic, full curve, poor fit] | Potency (CAOV3) 0.794 µM [cytotoxic, full curve] | Potency (CASKI) 3.98 µM [cytotoxic, single point] | Potency (Es-2) 11.2 µM [cytotoxic, partial curve] | Potency (HeLa) 12.6 µM [cytotoxic, partial curve, poor fit] | Potency (Hek293T) 1.78 µM [cytotoxic, partial curve, poor fit] | Potency (OV90) 2.51 µM [cytotoxic, full curve, poor fit] | Potency (Tov112D) 3.16 µM [cytotoxic, full curve, poor fit]
active: Potency (SKOV3) 1.78 µM

Cc1nc(NC(=O)N2CCC[C@H]2C(N)=O)sc1-c1ccnc(C(C)(C)C(F)(F)F)c1
inconclusive: Potency [4] 9.2 µM [inhibitor, partial curve] | Potency (KB-3-1) 29.1 µM [inhibitor, single point] | Potency (NIH3T3) 13 µM [inhibitor, partial curve] | Potency (CAOV3) 39.8 µM [cytotoxic, single point] | Potency (CASKI) 7.08 µM [cytotoxic, full curve] | Potency (OV90) 12.6 µM [cytotoxic, partial curve]
inactive: Potency [5]
active: Potency [1] 1.63 µM and 2.63 µM | Potency (SKOV3) 12.6 µM

Cc1ccc(-c2c(C(=O)CF)n(CCCO)c3ncnc(N)c23)cc1
inactive: max response (KB-3-1) 4.56% | Potency (Es-2)
inconclusive: Potency [1] 25.8 µM [inhibitor, single point] | Potency [3] 25.8 µM [inhibitor, single point] | Potency (NIH3T3) 25.9 µM [inhibitor, single point] | Potency (CAOV3) 31.6 µM [cytotoxic, single point]

COc1ccc2c3ccnc4ccc(=O)n(c2c1)c43
inconclusive: Potency [4] 20.6 µM [inhibitor, single point] | Potency [1] 10.3 µM [inhibitor, partial curve] | Potency [3] 9.16 µM [inhibitor, partial curve] | Potency (KB-3-1) 29.1 µM [inhibitor, single point] | Potency (NIH3T3) 18.4 µM [inhibitor, single point] | Potency (CASKI) 39.8 µM [cytotoxic, single point] | Potency (Es-2) 31.6 µM [cytotoxic, single point] | Potency (Hek293T) 39.8 µM [cytotoxic, single point] | Potency (SKOV3) 31.6 µM [cytotoxic, partial curve, poor fit] | Potency (Tov-21-G) 20 µM [cytotoxic, single point] | Potency (Tov112D) 39.8 µM [cytotoxic, single point]

O=C(Nc1ncc(SCCN2CCCC2)s1)C1(c2ccc(S(=O)(=O)C3CC3)cc2)CC1C1CCCCC1 (stereo not given)
inconclusive: Potency [4] 29.1 µM [inhibitor, single point] | Potency (KB-3-1) 20.6 µM [inhibitor, single point] | Potency (NIH3T3) 29.1 µM [inhibitor, single point] | Potency (C33A) 39.8 µM [cytotoxic, single point] | Potency (CAOV3) 39.8 µM [cytotoxic, single point] | Potency (PA-1) 39.8 µM [cytotoxic, single point] | Potency (SKOV3) 39.8 µM [cytotoxic, single point]
active: Potency [5] 21.3 µM
